Activity change, negative = inhibition data for 15 compounds are collected here from PubChem BioAssay AID1745853 (National Center for Advancing Translational Sciences (NCATS), 2022).

This is one part of the list. Shown are side measurements of this screen, not its main read-out; they come without a call.

What all share (experiment): Primary Screen for Target Class Profiling of Small Molecule Inhibitors of Methyltransferases
Assay [1] addresses Glycine N-methyltransferase (Homo sapiens) (UniProt Q14749). The settings on record: purified enzyme, MTase-Glo SAH luminescence; measured here: GNMT inhibition; at 40 µM; stronger effect = lower value. The gist of the method:
(§1)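 Each enzyme was assayed with SAM and its substrate. SAH formation detected by MTase-Glo luminescence; single-point 40 uM screen[…].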

The target in assay [2] is Guanidinoacetate N-methyltransferase (Homo sapiens) (UniProt Q14353). Particulars: purified enzyme, MTase-Glo SAH luminescence; measured here: GAMT inhibition; at 40 µM; stronger effect = lower value. The gist of the method: as §1
The target of assay [3] is Histamine N-methyltransferase (Homo sapiens) (UniProt P50135). Particulars: purified enzyme, MTase-Glo SAH luminescence; measured here: HNMT inhibition; at 40 µM; stronger effect = lower value. In a few lines:
as §1

Assay [4] deals with Nicotinamide N-methyltransferase (Homo sapiens) (UniProt P40261). The settings on record: purified enzyme, MTase-Glo SAH luminescence; measured here: NNMT inhibition; at 40 µM; stronger effect = lower value. In a few lines: as §1
Assay [5] has as its target Phenylethanolamine N-methyltransferase (Homo sapiens) (UniProt P11086). The settings on record: purified enzyme, MTase-Glo SAH luminescence; measured here: PNMT inhibition; at 40 µM; stronger effect = lower value. In a few lines: as §1
% is set by controls: 0 for no effect and ±100 for the full control effect.

Consider `O=C(Nc1ccccc1F)N1CC(Oc2cccc(-c3nc(-c4ccccc4)no3)c2)C1`, for which the activity change, negative = inhibition in assay [1] was -5.44%; in assay [2] it was -12%; in assay [3], -3.48%; in assay [4], -4.96%; in assay [5] it was -4.92%.

As for `Cc1ccc(CNC(=O)C2(C)Cn3nc(C(=O)NCCc4ccccc4C)cc3C(=O)N2C)cc1` (stereo not given), the activity change, negative = inhibition in assay [1] came out at 2.44%; in assay [2], 0%; in assay [3], 5.5%; in assay [4], 2.02%; in assay [5], 2.17%.

As for `O=C(CCc1nnc2n(Cc3ccc(F)cc3)c(=O)c3ccccc3n12)NCc1ccc(Cl)cc1`, the activity change, negative = inhibition in assay [1] is -11.2%; in assay [2] it was 4.01%; in assay [3], -0.015%; in assay [4] it was -3.47%; in assay [5], -7.59%.

Take `CCCCCCCCCCCCCCSCC(=O)O`: the activity change, negative = inhibition was 1.85% in assay [1]; 8.95% in assay [2]; 3.04% in assay [3]; -7.29% in assay [4]; 4.71% in assay [5].

For the compound `CC(C)N(Cc1nccn1C)C(=O)CC(c1ccccc1)c1ccccc1F` (stereo not given), the activity change, negative = inhibition in assay [1] is -6.31%; in assay [2], -6.95%; in assay [3], -11.6%; in assay [4], -15.1%; in assay [5] it was -5.43%.

On to `Cc1ccc(NC(=O)Cn2nc3n(C(C)C)c(=O)c4ccc(C(=O)NCC(C)C)cc4n3c2=O)cc1F`, for which the activity change, negative = inhibition in assay [1] was 5.18%; in assay [2], 0.071%; in assay [3], 9.98%; in assay [4] it was -2.05%; in assay [5], 4.95%.

Take `CC1(C)CC[C@]2(C(=O)O[C@@H]3O[C@H](CO[C@@H]4O[C@H](CO)[C@@H](O)[C@H](O)[C@H]4O)[C@@H](O)[C@H](O[C@@H]4O[C@H](CO)[C@@H](O)[C@H](O)[C@H]4O)[C@H]3O)[C@H](O)C[C@]3(C)C(=CCC4[C@@]5(C)CC[C@H](O[C@@H]6OC[C@@H](O)[C@H](O)[C@H]6O)[C@@](C)(C(=O)O)C5CC[C@]43C)[C@@H]2C1` (stereo not given in full): the activity change, negative = inhibition was 3.43% in assay [1]; -3.73% in assay [2]; 6.92% in assay [3]; -12.2% in assay [4]; 4.84% in assay [5].

`COC(=O)c1ncn2c1C(=O)N(CCc1ccc(SC)cc1)C(C)(C(=O)NC1CCCCC1)C2` (stereo not given): the activity change, negative = inhibition turned out to be 0.467% in assay [1]; 0% in assay [2]; 11.6% in assay [3]; 4.57% in assay [4]; 3.72% in assay [5].

For the compound `CC(C)OCCCn1c(=O)c2ccccc2n2c(CCC(=O)NCc3ccccc3Cl)nnc12`, the activity change, negative = inhibition in assay [1] was 0.445%; in assay [2], -4.3%; in assay [3], 10.3%; in assay [4], -1.92%; in assay [5] it was -10.9%.

Regarding `CC(=O)OC/C=C(\C)C(CC1C(C)=C(OC(C)=O)C(=O)C2C(C)(C)C(O)CCC12C)OC(C)=O` (stereo not given), the activity change, negative = inhibition in assay [1] is 3.21%; in assay [2] it was 6.76%; in assay [3], 10.9%; in assay [4], -9.86%; in assay [5], 6.35%.

`O=C(O)CN(CCN(CC(=O)O)CC(=O)O)CCN(CC(=O)O)CC(=O)O`: the activity change, negative = inhibition in assay [1] is -4.53%; in assay [2], 8.2%; in assay [3], 2.48%; in assay [4], -7.07%; in assay [5], 1.05%.

For the compound `COc1cc(OC)cc(C(=O)NCC2CCCN(C(=O)CCNC(C)=O)C2)c1` (stereo not given), the activity change, negative = inhibition in assay [1] is 0.082%; in assay [2], 0.367%; in assay [3], 0.963%; in assay [4], -3.89%; in assay [5], -0.557%.

As to `CC(C)OCCCn1c(=O)c2ccccc2n2c(CCC(=O)NCCc3ccc(Cl)cc3)nnc12`, the activity change, negative = inhibition was -5.24% in assay [1]; 3.9% in assay [2]; 3.21% in assay [3]; -3.54% in assay [4]; -2.39% in assay [5].

`CC1(C(=O)NCc2ccccc2)Cc2ccccc2C(=O)N1Cc1ccccc1` (stereo not given): the activity change, negative = inhibition in assay [1] is 11.7%; in assay [2] it was 0%; in assay [3], 10.2%; in assay [4], -1.16%; in assay [5] it was 4.16%.

For `CC(C)(CO)Cc1cc(C(C)(C)C)c(O)c(C(C)(C)C)c1`, the activity change, negative = inhibition in assay [1] is 5.42%; in assay [2], 16.7%; in assay [3], 10.5%; in assay [4] it was -5.96%; in assay [5], 2.59%.
